Test results taken from patent publication US20160159928A1.

Assays:
CXCR1 [1] = target: CXCR1 (UniProt P25024); assay: flow cytometry; secreted IgG, CXCR1-U2OS over parental U2OS cells
CXCR1 [2] = target: CXCR1 (UniProt P25024); assay: flow cytometry; CXCR1-U2OS over parental U2OS cells

UniProt P25024, sequence (P25024 whole entry): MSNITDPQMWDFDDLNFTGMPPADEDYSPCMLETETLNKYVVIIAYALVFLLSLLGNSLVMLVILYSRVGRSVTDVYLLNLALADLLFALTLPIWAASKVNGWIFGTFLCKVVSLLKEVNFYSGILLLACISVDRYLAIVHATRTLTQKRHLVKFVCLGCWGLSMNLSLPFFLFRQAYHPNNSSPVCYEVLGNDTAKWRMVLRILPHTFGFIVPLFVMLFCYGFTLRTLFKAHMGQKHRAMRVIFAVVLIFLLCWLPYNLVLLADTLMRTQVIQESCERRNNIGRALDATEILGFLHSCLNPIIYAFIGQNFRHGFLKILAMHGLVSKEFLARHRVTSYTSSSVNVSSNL

Row | FACS CXCR1/Parental Ratio (CXCR1 [1]) | CXCR1/Parental Ratio (CXCR1 [2]) | Binder
1 | 0.8 | – | BLV1H12+CDR3-IL8 heavy chain with human germline light chain V1-2J7 (antibody, human IgG1, lambda) heavy: QVQLRESGPSLVKPSQTLSLTCTASGFSLSDKAVGWVRQAPGKALEWLGSIDTGGNTGYNPGLKSRLSITKDNSKSQVSLSVSSVTTEDSATYYCTSVHQETKKYQSPRSAKELRCQCIKTYSKPFHPKFIKELRVIESGPHCANTEIIVKLSDGRELCLDPKENWVQRVVEKFLKRAENSGSGSYTYNYEWHVDVWGQGLLVTVSS[omitted - human IgG1 constant region] light: QSALTQPPSASGSPGQSVTISCTGTSSDVGGYNYVSWYQQHPGKAPKLMIYEVSKRPSGVPDRFSGSKSGNTASLTVSGLQAEDEADYYCSSYAGSNNFAVFGGGTQLTVLGQPKAAPSVTLFPPSSEELQANKATLVCLISDFYPGAVTVAWKADSSPVKAGVETTTPSKQSNNKYAASSYLSLTPEQWKSHRSYSCQVTHEGSTVEKTVAPTECS
2 | 2 | – | BLV1H12+CDR3-IL8 heavy chain with human germline light chain V2-17J2 (antibody, human IgG1, lambda) heavy: QVQLRESGPSLVKPSQTLSLTCTASGFSLSDKAVGWVRQAPGKALEWLGSIDTGGNTGYNPGLKSRLSITKDNSKSQVSLSVSSVTTEDSATYYCTSVHQETKKYQSPRSAKELRCQCIKTYSKPFHPKFIKELRVIESGPHCANTEIIVKLSDGRELCLDPKENWVQRVVEKFLKRAENSGSGSYTYNYEWHVDVWGQGLLVTVSS[omitted - human IgG1 constant region] light: SYELTQPPSVSVSPGQTARITCSGDALPKQYAYWYQQKPGQAPVLVIYKDSERPSGIPERFSGSSSGTTVTLTISGVQAEDEADYYCQSADSSGTYPVVFGGGTKLTVLGQPKAAPSVTLFPPSSEELQANKATLVCLISDFYPGAVTVAWKADSSPVKAGVETTTPSKQSNNKYAASSYLSLTPEQWKSHRSYSCQVTHEGSTVEKTVAPTECS
3 | 0.6 | – | BLV1H12+CDR3-IL8 heavy chain with human germline light chain V1-7J1 (antibody, human IgG1, lambda) heavy: QVQLRESGPSLVKPSQTLSLTCTASGFSLSDKAVGWVRQAPGKALEWLGSIDTGGNTGYNPGLKSRLSITKDNSKSQVSLSVSSVTTEDSATYYCTSVHQETKKYQSPRSAKELRCQCIKTYSKPFHPKFIKELRVIESGPHCANTEIIVKLSDGRELCLDPKENWVQRVVEKFLKRAENSGSGSYTYNYEWHVDVWGQGLLVTVSS[omitted - human IgG1 constant region] light: QSALTQPASVSGSPGQSITISCTGTSSDVGSYNLVSWYQQHPGKAPKLMIYEGSKRPSGVSNRFSGSKSGNTASLTISGLQAEDEADYYCCSYAGSSTFYVFGTGTKVTVLGQPKAAPSVTLFPPSSEELQANKATLVCLISDFYPGAVTVAWKADSSPVKAGVETTTPSKQSNNKYAASSYLSLTPEQWKSHRSYSCQVTHEGSTVEKTVAPTECS
4 | 1.2 | – | BLV1H12+CDR3-IL8 heavy chain with human germline light chain V3-4J1 (antibody, human IgG1, lambda) heavy: QVQLRESGPSLVKPSQTLSLTCTASGFSLSDKAVGWVRQAPGKALEWLGSIDTGGNTGYNPGLKSRLSITKDNSKSQVSLSVSSVTTEDSATYYCTSVHQETKKYQSPRSAKELRCQCIKTYSKPFHPKFIKELRVIESGPHCANTEIIVKLSDGRELCLDPKENWVQRVVEKFLKRAENSGSGSYTYNYEWHVDVWGQGLLVTVSS[omitted - human IgG1 constant region] light: QTVVTQEPSFSVSPGGTVTLTCGLSSGSVSTSYYPSWYQQTPGQAPRTLIYSTNTRSSGVPDRFSGSILGNKAALTITGAQADDESDYYCVLYMGSGISYVFGTGTKVTVLGQPKAAPSVTLFPPSSEELQANKATLVCLISDFYPGAVTVAWKADSSPVKAGVETTTPSKQSNNKYAASSYLSLTPEQWKSHRSYSCQVTHEGSTVEKTVAPTECS
5 | – | 3 | VH4-34+CDR3-IL8_CDR1 G31D, Y32K with light chain V1-51 (antibody, human IgG1, lambda) heavy: QVQLQQWGAGLLKPSETLSLTCAVYGGSFSDKYWSWIRQPPGKGLEWIGEINHSGSTNYNPSLKSRVTISVDTSKNQFSLKLSSVTAADTAVYYCTSVHQETKKYQSPRSAKELRCQCIKTYSKPFHPKFIKELRVIESGPHCANTEIIVKLSDGRELCLDPKENWVQRVVEKFLKRAENSGSGSYTYNYEWHVDVWGQGLLVTVSS[omitted - human IgG1 constant region] light: QSVLTQPPSVSAAPGQKVTISCSGSSSNIGNNYVSWYQQLPGTAPKLLIYDNNKRPSGIPDRFSGSKSGTSATLGITGLQTGDEADYYCASAEDSSSNAVFGSGTTLTVLGQPKAAPSVTLFPPSSEELQANKATLVCLISDFYPGAVTVAWKADSSPVKAGVETTTPSKQSNNKYAASSYLSLTPEQWKSHRSYSCQVTHEGSTVEKTVAPTECS
6 | – | 3 | VH4-34+CDR3-IL8_CDR1 G31D, Y32K_CDR2 E50S with light chain V1-51 (antibody, human IgG1, lambda) heavy: QVQLQQWGAGLLKPSETLSLTCAVYGGSFSDKYWSWIRQPPGKGLEWIGSINHSGSTNYNPSLKSRVTISVDTSKNQFSLKLSSVTAADTAVYYCTSVHQETKKYQSPRSAKELRCQCIKTYSKPFHPKFIKELRVIESGPHCANTEIIVKLSDGRELCLDPKENWVQRVVEKFLKRAENSGSGSYTYNYEWHVDVWGQGLLVTVSS[omitted - human IgG1 constant region] light: QSVLTQPPSVSAAPGQKVTISCSGSSSNIGNNYVSWYQQLPGTAPKLLIYDNNKRPSGIPDRFSGSKSGTSATLGITGLQTGDEADYYCASAEDSSSNAVFGSGTTLTVLGQPKAAPSVTLFPPSSEELQANKATLVCLISDFYPGAVTVAWKADSSPVKAGVETTTPSKQSNNKYAASSYLSLTPEQWKSHRSYSCQVTHEGSTVEKTVAPTECS
7 | – | 1.8 | VH4-34+CDR3-IL8_CDR2 E50S with light chain V1-51 (antibody, human IgG1, lambda) heavy: QVQLQQWGAGLLKPSETLSLTCAVYGGSFSGYYWSWIRQPPGKGLEWIGSINHSGSTNYNPSLKSRVTISVDTSKNQFSLKLSSVTAADTAVYYCTSVHQETKKYQSPRSAKELRCQCIKTYSKPFHPKFIKELRVIESGPHCANTEIIVKLSDGRELCLDPKENWVQRVVEKFLKRAENSGSGSYTYNYEWHVDVWGQGLLVTVSS[omitted - human IgG1 constant region] light: QSVLTQPPSVSAAPGQKVTISCSGSSSNIGNNYVSWYQQLPGTAPKLLIYDNNKRPSGIPDRFSGSKSGTSATLGITGLQTGDEADYYCASAEDSSSNAVFGSGTTLTVLGQPKAAPSVTLFPPSSEELQANKATLVCLISDFYPGAVTVAWKADSSPVKAGVETTTPSKQSNNKYAASSYLSLTPEQWKSHRSYSCQVTHEGSTVEKTVAPTECS
8 | – | 2.6 | VH4-34+CDR3-IL8_CDR1 G31D, Y32K_CDR2 Cow with light chain V1-51 (antibody, human IgG1, lambda) heavy: QVQLQQWGAGLLKPSETLSLTCAVYGGSFSDKYWSWIRQPPGKGLEWLGSIDTGGNTGYNPSLKSRVTISVDTSKNQFSLKLSSVTAADTAVYYCTSVHQETKKYQSPRSAKELRCQCIKTYSKPFHPKFIKELRVIESGPHCANTEIIVKLSDGRELCLDPKENWVQRVVEKFLKRAENSGSGSYTYNYEWHVDVWGQGLLVTVSS[omitted - human IgG1 constant region] light: QSVLTQPPSVSAAPGQKVTISCSGSSSNIGNNYVSWYQQLPGTAPKLLIYDNNKRPSGIPDRFSGSKSGTSATLGITGLQTGDEADYYCASAEDSSSNAVFGSGTTLTVLGQPKAAPSVTLFPPSSEELQANKATLVCLISDFYPGAVTVAWKADSSPVKAGVETTTPSKQSNNKYAASSYLSLTPEQWKSHRSYSCQVTHEGSTVEKTVAPTECS
9 | – | 3.1 | VH4-34+CDR3-IL8_CDR1 Cow_CDR2 E50S with light chain V1-51 (antibody, human IgG1, lambda) heavy: QVQLQQWGAGLLKPSETLSLTCTASGFSLSDKAVGWIRQPPGKGLEWIGSINHSGSTNYNPSLKSRVTISVDTSKNQFSLKLSSVTAADTAVYYCTSVHQETKKYQSPRSAKELRCQCIKTYSKPFHPKFIKELRVIESGPHCANTEIIVKLSDGRELCLDPKENWVQRVVEKFLKRAENSGSGSYTYNYEWHVDVWGQGLLVTVSS[omitted - human IgG1 constant region] light: QSVLTQPPSVSAAPGQKVTISCSGSSSNIGNNYVSWYQQLPGTAPKLLIYDNNKRPSGIPDRFSGSKSGTSATLGITGLQTGDEADYYCASAEDSSSNAVFGSGTTLTVLGQPKAAPSVTLFPPSSEELQANKATLVCLISDFYPGAVTVAWKADSSPVKAGVETTTPSKQSNNKYAASSYLSLTPEQWKSHRSYSCQVTHEGSTVEKTVAPTECS
10 | – | 3.9 | VH4-34+CDR3-IL8_CDR2 Cow with light chain V1-51 (antibody, human IgG1, lambda) heavy: QVQLQQWGAGLLKPSETLSLTCAVYGGSFSGYYWSWIRQPPGKGLEWLGSIDTGGNTGYNPSLKSRVTISVDTSKNQFSLKLSSVTAADTAVYYCTSVHQETKKYQSPRSAKELRCQCIKTYSKPFHPKFIKELRVIESGPHCANTEIIVKLSDGRELCLDPKENWVQRVVEKFLKRAENSGSGSYTYNYEWHVDVWGQGLLVTVSS[omitted - human IgG1 constant region] light: QSVLTQPPSVSAAPGQKVTISCSGSSSNIGNNYVSWYQQLPGTAPKLLIYDNNKRPSGIPDRFSGSKSGTSATLGITGLQTGDEADYYCASAEDSSSNAVFGSGTTLTVLGQPKAAPSVTLFPPSSEELQANKATLVCLISDFYPGAVTVAWKADSSPVKAGVETTTPSKQSNNKYAASSYLSLTPEQWKSHRSYSCQVTHEGSTVEKTVAPTECS
11 | – | 2.9 | VH4-34+CDR3-IL8 with light chain V1-51 (antibody, human IgG1, lambda) heavy: QVQLQQWGAGLLKPSETLSLTCAVYGGSFSGYYWSWIRQPPGKGLEWIGEINHSGSTNYNPSLKSRVTISVDTSKNQFSLKLSSVTAADTAVYYCTSVHQETKKYQSPRSAKELRCQCIKTYSKPFHPKFIKELRVIESGPHCANTEIIVKLSDGRELCLDPKENWVQRVVEKFLKRAENSGSGSYTYNYEWHVDVWGQGLLVTVSS[omitted - human IgG1 constant region] light: QSVLTQPPSVSAAPGQKVTISCSGSSSNIGNNYVSWYQQLPGTAPKLLIYDNNKRPSGIPDRFSGSKSGTSATLGITGLQTGDEADYYCASAEDSSSNAVFGSGTTLTVLGQPKAAPSVTLFPPSSEELQANKATLVCLISDFYPGAVTVAWKADSSPVKAGVETTTPSKQSNNKYAASSYLSLTPEQWKSHRSYSCQVTHEGSTVEKTVAPTECS
